± gives the standard deviation of the averaged measurements. In all, about 33,000 sequences were measured (“E-score (dimensionless, -0.5 to 0.5)”: median about -0.046, highest 2% from about 0.36 on). This is one part of the list.
System: T1, SpTbr T-box DNA-binding domain (GST fusion)
T1 sequence: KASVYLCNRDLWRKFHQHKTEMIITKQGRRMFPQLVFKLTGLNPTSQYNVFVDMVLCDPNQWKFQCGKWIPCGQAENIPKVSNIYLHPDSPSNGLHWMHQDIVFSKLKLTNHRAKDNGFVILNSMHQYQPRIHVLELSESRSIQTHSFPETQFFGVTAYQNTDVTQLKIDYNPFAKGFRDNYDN
Assay: PBM E-score of 8-mer (E-score (dimensionless, -0.5 to 0.5)); Tbr is Tbrain of the sea star Patiria miniata (Pm) or the sea urchin Strongylocentrotus purpuratus (Sp); higher = stronger binding preference; most listed sequences are background and not binding sites
Details: the construct has about 5 more residues each side
Outline: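 GST-fused Tbr T-box DNA-binding domains (the whole T-box plus about five flanking residues) were expressed in BL21 E. coli at 20 °C and purified by glutathione affinity chromatography. Universal Agilent oligonucleotide arrays were made double-stranded by primer extension, incubated with 200 nM protein in PBS (pH 7.5), then scanned and quantified. Every ungapped 8-mer was scored from probe intensities. The Universal PBM Analysis Suite gave each word an enrichment E-score, averaged over duplicate arrays.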

Sequence | PBM E-score of 8-mer
GAATCATC | 0.0208 ± 0.0082
CATCTGAA | -0.0344 ± 0.037
AGTCAGGC | -0.353 ± 0.006
ATAGACTG | -0.0471 ± 0.019
CGAAACTC | -0.0132 ± 0.026
CCGGAACG | -0.181 ± 0.022
AAGGATCT | -0.106 ± 0.045
AGCAGGAA | -0.193 ± 0.0089
CTGTGATA | 0.23 ± 0.055
ATCCGAAT | -0.313 ± 0.019
ACCTCTAA | -0.141 ± 0.051
AGGCTGGG | -0.179 ± 0.012
CGATATTC | -0.0678 ± 0.032
AATACATG | -0.259 ± 0.037
ACGACCAG | -0.0248 ± 0.076
TGTATTAA | -0.0603 ± 0.0022
CTGTGGTC | -0.0438 ± 0.0053
AGCATTAA | -0.18 ± 0.02
ACGCGCGC | 0.189 ± 0.056
AAACCCCA | -0.182 ± 0.086
CTATCAGA | -0.122 ± 0.0019
GCCGACCC | -0.201 ± 0.12

Sequence | PBM E-score of 8-mer
ACTGTTGC | 0.0339 ± 0.0018
GAGTCAAA | -0.0961 ± 0.078
AGCTAAGA | 0.0389 ± 0.044
ACGTCATC | 0.0752 ± 0.022
CATTCTCG | 0.183 ± 0.031
CCATGGGC | -0.0862 ± 0.0082
ATTGATAC | 0.018 ± 0.01
CACATAAA | 0.109 ± 0.0063
GGTGTGAC | 0.4822 ± 0.0041
CAACACTC | 0.335 ± 0.013
CGCCCATA | -0.00613 ± 0.11
TAGTCAGA | -0.109 ± 0.017
GCCGTGTA | -0.0136 ± 0.0036
CGTCGTAG | -0.185 ± 0.011
CGAGCGAA | 0.00717 ± 0.0014
TTGCCCAA | -0.0575 ± 0.067
GTCGAGAC | -0.212 ± 0.029
CCTTGACC | -0.176 ± 0.12
GGCGAGAA | 0.3394 ± 0.00085
AGTCCGTG | -0.132 ± 0.013
CTGAACTA | -0.28 ± 0.051
GAGGGTCC | -0.294 ± 0.0065

Sequence | PBM E-score of 8-mer
AACTCATG | -0.141 ± 0.073
AATTGCAG | 0.0374 ± 0.022
ACGGCACG | 0.0963 ± 0.067
CGTATGTA | -0.0808 ± 0.044
TACTCACA | 0.371 ± 0.0028
CATGATCC | -0.093 ± 0.079
GCGCCGAA | 0.126 ± 0.031
ACCCAGCC | -0.1851 ± 0.0011
GGCGGTCA | -0.174 ± 0.041
TAGTTAAA | -0.218 ± 0.051
CCTACCTA | -0.204 ± 0.043
AAAGCCGA | -0.0588 ± 0.082
CAGAGCCC | -0.0694 ± 0.033
CCGTGGGA | -0.0775 ± 0.076
AGATGTTA | 0.0658 ± 0.027
TGAATTCA | 0.031 ± 0.053
AAAAAGTT | 0.103 ± 0.042
GGACATCA | -0.0621 ± 0.043
CAGATACG | -0.000715 ± 0.0066
AAACGCCT | 0.132 ± 0.038
AGATATGA | -0.103 ± 0.069
CCACGTCA | 0.0492 ± 0.0049

Sequence | PBM E-score of 8-mer
GATCGTGA | 0.173 ± 0.054
CGCTCAGC | -0.178 ± 0.072
CGAGTGAA | 0.05115 ± 0.00042
GAAATGTA | -0.0526 ± 0.065
CGTCTGCA | -0.00521 ± 0.008
CTCGAAGA | -0.174 ± 0.085
ATCTAGAC | -0.23 ± 0.083
GTCTGAGA | -0.124 ± 0.049
GACTTCCA | -0.284 ± 0.042
CATCTCAA | -0.12 ± 0.0027
AAATCTCA | 0.134 ± 0.053
TGACCGCA | -0.119 ± 0.11
CAGAATAC | -0.126 ± 0.034
CCCCGCAC | 0.269 ± 0.0047
AATGTAAC | 0.0497 ± 0.024
AGCAAATC | -0.0137 ± 0.0026
GGAGAGGA | -0.0689 ± 0.018
AGGGTCAC | 0.196 ± 0.03
CCAATCCG | 0.0266 ± 0.074
GAGGGTTA | 0.0452 ± 0.071

— the supplement of paper PMC4166925
